Source: paper PMC4336329 (PLoS ONE, 2015)
In all, about 310,000 compounds went through this assay and about 2,200 (0.71%) showed an effect of 50% or more. Effects have a minus sign here. This is one part of the list.

Biological target: human ether-à-go-go-related gene (hERG) potassium channel (human, UniProt Q12809)
Test: primary screen, population patch clamp on CHO cells stably expressing hERG

human ether-à-go-go-related gene (hERG) potassium channel, sequence (Q12809 whole entry, looked up): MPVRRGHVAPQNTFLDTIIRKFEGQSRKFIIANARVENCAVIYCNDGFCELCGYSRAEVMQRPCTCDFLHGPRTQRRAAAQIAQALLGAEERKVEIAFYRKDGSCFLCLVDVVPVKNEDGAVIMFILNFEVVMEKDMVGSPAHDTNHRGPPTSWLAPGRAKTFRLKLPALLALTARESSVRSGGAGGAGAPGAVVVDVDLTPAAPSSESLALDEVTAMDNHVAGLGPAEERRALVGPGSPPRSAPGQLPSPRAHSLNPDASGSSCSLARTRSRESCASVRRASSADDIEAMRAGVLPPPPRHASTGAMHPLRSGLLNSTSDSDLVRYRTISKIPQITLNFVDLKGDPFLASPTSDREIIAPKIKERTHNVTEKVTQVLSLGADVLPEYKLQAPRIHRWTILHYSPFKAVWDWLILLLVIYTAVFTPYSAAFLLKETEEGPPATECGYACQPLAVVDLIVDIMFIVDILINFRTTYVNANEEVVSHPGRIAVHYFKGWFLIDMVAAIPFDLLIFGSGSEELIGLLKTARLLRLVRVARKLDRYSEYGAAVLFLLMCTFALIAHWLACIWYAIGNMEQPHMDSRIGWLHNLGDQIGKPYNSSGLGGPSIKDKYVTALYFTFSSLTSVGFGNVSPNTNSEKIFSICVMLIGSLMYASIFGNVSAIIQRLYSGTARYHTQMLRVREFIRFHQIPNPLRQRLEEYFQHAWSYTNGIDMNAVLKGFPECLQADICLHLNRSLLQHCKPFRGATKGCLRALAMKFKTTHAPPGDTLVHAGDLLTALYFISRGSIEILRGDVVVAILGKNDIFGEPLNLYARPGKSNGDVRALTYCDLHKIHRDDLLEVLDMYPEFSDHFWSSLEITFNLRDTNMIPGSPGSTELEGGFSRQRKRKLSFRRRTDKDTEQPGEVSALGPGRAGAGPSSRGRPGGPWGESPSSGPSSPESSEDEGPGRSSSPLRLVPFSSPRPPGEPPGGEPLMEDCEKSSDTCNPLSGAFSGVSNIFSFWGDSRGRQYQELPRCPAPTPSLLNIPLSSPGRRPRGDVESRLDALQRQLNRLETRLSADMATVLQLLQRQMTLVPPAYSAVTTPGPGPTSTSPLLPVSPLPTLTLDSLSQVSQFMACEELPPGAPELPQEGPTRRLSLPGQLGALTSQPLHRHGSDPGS

Row | SMILES | hERG current change (%, negative = inhibition) at 1uM
1 | OCC1OC(n2cnc3ccccc32)CC1O (stereo not drawn) | 9.78%
2 | Cc1cc(SCc2ccccc2C)nc(=O)[nH]1 | 16%
3 | COc1cc(S(=O)(=O)NCCCN2CCOCC2)ccc1Cl | 9.28%
4 | O=C(Cn1nc(-c2ccc(Cl)cc2)c2ccccc2c1=O)NN1CCOCC1 | 13.2%
5 | Cc1ccc(N2CC(C(=O)Nc3ccc(N4CCOCC4)cc3)CC2=O)cc1C (stereo not drawn) | 15%
6 | C/C(CC(=O)NC12CC3CC(CC(C3)C1)C2)=N\NC(=O)c1ccc(C)cc1 | 19%
7 | CCc1nc2ccccc2[nH]c1=O | 8.08%
8 | O=C(NCc1cc(Br)cc(Br)c1OC(=O)c1ccccc1[N+](=O)[O-])c1ccccc1 | 13.1%
9 | O=C(NC(=S)NNS(=O)(=O)c1ccccc1)c1ccccc1[N+](=O)[O-] | 15.5%
10 | C/C(=C\C(=O)c1ccc(Br)cc1)Nc1ccc(Cl)cc1 | 12.6%
11 | CC(OC(=O)Cn1cc(C(F)(F)F)ccc1=O)C(=O)NC(C)c1ccc(Cl)cc1Cl (stereo not drawn) | 11.9%
12 | Cc1ccc(Cl)cc1N1CCN(C(=O)CN2C(=O)c3cccc4cccc2c34)CC1 | 5.11%
13 | CN(Cc1ccccc1)S(=O)(=O)c1ccc(NS(C)(=O)=O)cc1 | -13.3%
14 | CCCCC(=O)Nc1ccc(C(=O)NCC(=O)OC)cc1 | 7.3%
15 | COc1ccc(C(=O)n2nc(-c3ccco3)nc2SC)cc1OC | 4.51%
16 | CCCC(=O)Nc1cc(-c2nn(C)c(=O)c3ccccc23)ccc1N1CCOCC1 | -15.1%
17 | CCC(C(=O)NC1CCCC1)N(Cc1cccs1)C(=O)Cn1nnc(-c2ccc(OC)c(OC)c2)n1 (stereo not drawn) | 1.45%
18 | COc1ccc(C(=O)N2CCCCCC2)cc1OC1CCN(C(C)=O)CC1 | 6.96%
19 | CCN(C(=O)COC(=O)CCn1c(C)csc1=O)c1c(N)n(Cc2ccccc2)c(=O)[nH]c1=O | 7.6%
20 | NC(=O)C1CCCN(CC(O)COCc2ccc(Cl)cc2)C1.O=C(O)C(=O)O (stereo not drawn) | 11.5%
21 | CCOC(=O)C(C(=O)NCC1CCCO1)C1CCCCC1 (stereo not drawn) | 12.7%
22 | O=C1CCC(C(=O)OC(C(=O)Nc2ccc([N+](=O)[O-])cc2Br)c2ccccc2)=NN1 (stereo not drawn) | 0.119%

Row | SMILES | hERG current change (%, negative = inhibition) at 1uM
23 | Cc1ccc(C(=O)OCC(=O)Nc2cccc(S(=O)(=O)N3CCOCC3)c2)o1 | -19.2%
24 | O=C(Nc1ccn(Cc2c(F)c(F)cc(F)c2F)n1)c1cccc(Cn2cc([N+](=O)[O-])cn2)c1 | 3.98%
25 | Cn1c(=O)c2c(nc(N/N=C/c3c(O)n(-c4ccccc4)c(=S)[nH]c3=O)n2C)n(C)c1=O | 4.23%
26 | O=C(Cn1nnc2ccccc2c1=O)N[C@H](C(=O)O)c1ccccc1 | 7.56%
27 | CCCC(=O)c1cc(F)c(N2CCN(S(=O)(=O)c3ccccc3)CC2)cc1C | 8.01%
28 | O=C(COC(=O)CCCc1c[nH]c2ccccc12)Nc1ccc2c(c1)OCO2 | 17.7%
29 | CCCc1cc(=O)n2nc(N3CCC(C(=O)NCc4ccco4)CC3)sc2n1 | 5.15%
30 | COc1ccc2c(c1)C(=O)C(=O)N2CC1COc2ccccc2O1 (stereo not drawn) | 13.7%
31 | N#C/C(=N\Nc1ccc(Cl)cc1)C(=N)N1CCCCC1 | 0.289%
32 | COC(=O)c1ccc(S(=O)(=O)NCc2cccc(OC)c2)n1C | 7.83%
33 | O=C(Nc1nc(-c2ccc(F)c(F)c2)cs1)Nc1ccc(F)cc1F | 14%
34 | Cc1ccccc1-c1nc(CS(=O)CC(=O)NCCN2CCOCC2)c(C)o1 (stereo not drawn) | 10.6%
35 | CS(=O)(=O)N(CC(=O)N1CCCCCC1)c1ccc(Cl)cc1 | 11.7%
36 | Cc1ccc(S(=O)(=O)NCc2ccccn2)c(C)c1 | 4.97%
37 | COc1cccc(CN2CCc3ccc(NC(=O)CCc4ccc(C)cc4)cc3C2)c1O | -2.95%
38 | COc1ccc(N(C)S(=O)(=O)c2cccc(C(=O)NCC(c3ccco3)N3CCCC3)c2)cc1 (stereo not drawn) | -1.85%
39 | Cc1cccc(-c2nsc(SCC(=O)NCc3ccco3)n2)c1 | 9.34%
40 | Cc1ccc(NC(=O)OCc2ccccc2S(C)=O)cc1 (stereo not drawn) | -2.24%
41 | COc1cc(NC(=O)CN(c2ccc(C)cc2)S(=O)(=O)c2c(C)n[nH]c2C)cc(OC)c1 | 10.2%
42 | Cc1noc(C)c1S(=O)(=O)Nc1ccc(C(=O)O)cc1 | 6.47%
43 | O=C(NCCc1ccccc1)c1ccc2[nH]c(=O)c(=O)[nH]c2c1 | 7.46%
44 | O=C(NCCc1ccc(Cl)cc1)c1cc(-c2ccncc2)nc2ccccc12 | 9.38%

Row | SMILES | hERG current change (%, negative = inhibition) at 1uM
45 | Cc1oc2nc(SCC(=O)NCc3cccnc3)nc(N)c2c1C | -2.53%
46 | COc1cc(NC(=O)c2ccc3c(SCC(=O)O)c4c(nc3c2)CCC4)cc(OC)c1OC | 9.89%
47 | COC(=O)C1=C(C)n2nnnc2NC1c1ccc(Cl)cc1 (stereo not drawn) | 2.32%
48 | CCOC(=O)C(CC)n1cnc2c(nnn2-c2ccc(C)cc2)c1=O (stereo not drawn) | -5.14%
49 | O=C(Nc1ccccc1Br)c1ccc(N2CCCC2=O)cc1 | 10.1%
50 | CCN1CCN(c2nnc(-c3ccc(C)cc3)c3ccccc23)CC1 | -6.01%
51 | COc1ccc(/C=C/C(=O)N2CCN(c3ccccc3)CC2)cc1S(=O)(=O)N1CCOCC1 | 5.11%
52 | O=C(CSc1ncccn1)Nc1ncc(C(F)(F)F)cc1Cl | 36.6%
53 | COc1ccc(S(=O)(=O)NCC2CC3C=CC2C3)cc1OC (stereo not drawn) | 2.85%
54 | O=c1nc2n(c3cccc(Cl)c13)CCCCC2 | 6.32%
55 | COc1cccc(NC(=O)C(C#N)Cc2ccncc2)c1 (stereo not drawn) | -1.94%
56 | COc1ccc(CCNC2CCCCCC2)cc1 | 12.8%
57 | CC(=O)c1cccc(NCC(=O)N2CCN(S(=O)(=O)c3ccccc3)CC2)c1 | 1.24%
58 | Cc1ccc(S(=O)(=O)N2CCCC(C(=O)N3CCN(C)CC3)C2)cc1 (stereo not drawn) | 15.6%
59 | CC(C)c1c(C(=O)N/N=C/c2ccc(OCc3ccc(F)cc3)cc2)nnn1-c1nonc1N | 16.7%
60 | O=C(C1=C[C@H](C2CC2)C[C@H](OCCCCO)O1)N1CCOCC1 | 15.6%
61 | Cc1cccc(N2C(=O)CS/C2=N\NC(=O)c2ccc(Br)cc2)c1C | 8.97%
62 | COc1cccc(C(=O)NNC(=O)C(=O)Nc2cccc3ccccc23)c1 | 14.5%
63 | Cc1ccc(C2=NN(CCC(=O)NC3CCCC3)C(=O)CC2)cc1 | -3.78%
64 | Cc1ccc(CNCC2CCCO2)s1.Cl (stereo not drawn) | 7.59%
65 | CC(=O)N1CCC2(CC1)C(C#N)=C(N)Oc1n[nH]c(CSc3ccc(C)cc3)c12 | 9.32%
66 | CC1CCN(C(=O)CN(C)S(=O)(=O)c2cccc3nsnc23)CC1 | 7.74%

Row | SMILES | hERG current change (%, negative = inhibition) at 1uM
67 | COc1ccc(C2C3=C(CC(C)(C)CC3=O)Nc3n[nH]c(C)c32)cc1 (stereo not drawn) | -1.8%
68 | CN1CCN(C(=S)NC(=O)c2cccc(S(=O)(=O)N(C)C)c2)CC1 | 16%
69 | CC(NC(=O)COc1ccccc1)C(=O)OCC(=O)c1cc2ccccc2o1 (stereo not drawn) | 15.4%
70 | O=C(CN(C1CCCCC1)S(=O)(=O)c1ccc(F)cc1)NC1CC1 | 5.04%
71 | COc1ccc(CN2CCN(c3ccccc3OC)CC2)cc1OC.O=C(O)C(=O)O | -40.3%
72 | CCN(C(=O)CSc1nnc(NC2CCCCC2)s1)C1CCS(=O)(=O)C1 (stereo not drawn) | 2.2%
73 | CC(=O)Nc1ccc(S(=O)(=O)Nc2nc3ccccc3nc2N2CCCC2)cc1 | -3.61%
74 | C/C(=N\OCC(=O)Nc1ccc(Br)cc1)c1cccs1 | 9.14%
75 | CCc1ccc(Nc2nnc(SC3CCOC3=O)s2)cc1 (stereo not drawn) | 8.47%
76 | CS(=O)(=O)Nc1ccc(C(=O)N2CCN(c3ccccc3)CC2)cc1 | -31.4%
77 | Cc1nn(C(C)C(=O)NCCc2ccccc2)c(=O)c2cc3occc3n12 (stereo not drawn) | 15.6%
78 | N#CCCn1nc(Cc2cccc3ccccc23)c(C#N)c1N | 11.9%
79 | COC(=O)Cc1[nH]nc2c1C(c1cc(OC)c(OC)c(OC)c1)C(C#N)=C(N)O2 (stereo not drawn) | 9.7%
80 | Cc1ccc(C)n1CCN1CCN(C(=O)c2ccc(Cl)cc2)CC1 | -6.34%
81 | CC(C)NC(=O)N1CCC(n2nccc2NC(=O)CCOc2ccccc2)CC1 | 17.8%
82 | O=C(NN1C(=O)C2C3C=CC(C4CC34)C2C1=O)c1cccc(Br)c1 (stereo not drawn) | 12.6%
83 | O=C(NCc1ccc(C(F)(F)F)cc1)C1CC(c2c(Cl)cccc2Cl)=NO1 (stereo not drawn) | 4.22%
84 | CCC1CCCCN1CCCNC(=O)c1ccc2c(=O)n(Cc3ccc(OC)cc3)c(=O)[nH]c2c1 (stereo not drawn) | 10.6%
85 | COc1cc(NC(=O)CN2C(=O)NC3(CCOc4ccccc43)C2=O)cc(OC)c1 (stereo not drawn) | 5.65%
86 | COc1ccc([N+](=O)[O-])cc1NS(=O)(=O)c1cc(C(=O)O)ccc1OC | 8.6%
87 | COc1cccc(CN(C)C(=O)CC23CC4CC(CC(C4)C2)C3)c1OC | -8.38%
